Test results taken from PubChem BioAssay AID504832 (National Center for Advancing Translational Sciences (NCATS), 2011).
Screen size: about 310,000 compounds; about 18,000 (5.8%) were called active. The shares of active, inactive and inconclusive entries below differ from those in the screen. Calls follow the shape of the dose curve; as a rule, active = well fitted inhibition curve with a large enough effect; inconclusive = small, poorly fitted or top-dose-only effect, or another doubt; inactive = no such curve, though single readings can be large or run the other way. No potency is given beside an inconclusive call; the fits are too rough.

test: Primary qHTS for delayed death inhibitors of the malarial parasite plastid, 48 hour incubation; details: P. falciparum luciferase growth in erythrocytes; series mostly up to 28.7 µM
Description: The goal of this screen is to discover new antimalarial compounds that act by inhibiting the development of the apicoplast in the malarial parasite Plasmodium falciparum. The biochemical processes that make this organelle essential for erythrocytic stage parasites are not well understood. However, antibiotics such as azithromycin and tetracycline, which target the apicoplast translational machinery, have a potent antimalarial effect.
We have developed a cell-based assay that measures parasite growth based on the expression of an integrated copy of a firefly luciferase reporter. To detect small molecules that cause this "delayed death" phenotype, erythrocytes infected with the luciferase-expressing parasites were incubated with compounds for either one or two generations, corresponding to 48 and 96 hours, respectively. Compounds that inhibit parasite growth in the second generation, but not the first, should be enriched in antimalarials that target the apicoplast. Growth inhibition is detected by a decrease in luciferase activity.
Assay Provider: David Fidock and Eric Ekland, Columbia University
Keywords: NIH Roadmap, MLPCN, MLI, MLSMR, qHTS, NCGC, qHTS, malaria, luciferase, viability
Four microliters of culture medium (RPMI 1640 with 0.5% w/v Albumax (GIBCO), 24 mM sodium bicarbonate and 10 ug/mL gentamycin) were dispensed by a Multi-drop Combi into white solid 1536-well plates (Grenier) and 23 nL compound was added by a pin tool. Four microliters of infected erythrocytes (2% hematocrit, 0.1% parasitemia final concentration) in culture medium were dispensed and the plates incubated for 48 hours at 37 C in 5% CO2. Two microliters of luciferase detection reagent was added and luminescence was detected by a ViewLux (PerkinElmer) reader.
Potency is read from the fitted curve at half-maximal effect; tags tell the direction and shape of the fitted curve.

Row | SMILES | Potency
1 | CCCCc1nc2ccccc2c(NC(=O)CN2CCN(C)CC2)c1CCC | inactive
2 | COC(=O)C1=C(c2ccc(OC)c(OC)c2)C[C@@H]2CC[C@H]1N2C(=O)NCCOc1ccccc1Cl | inconclusive [inhibitor, partial curve, poor fit]
3 | Cc1cccc(N=CC=C2OC(C)(C)C(C)(C)O2)c1 | inconclusive [inhibitor, single point]
4 | CCc1ccc(C2=NNC(=Nc3cccc(S(=O)(=O)N(C)C)c3)SC2)cc1 | inconclusive [inhibitor, single point]
5 | c1ccc(Nc2c3c(nc4ccccc24)CCC3)cc1 | inconclusive [inhibitor, partial curve, poor fit]
6 | Cn1cccc1Cc1nnc(SCC(=O)N2CCN(c3ccccc3)CC2)n1-c1ccc(F)cc1 | inconclusive [inhibitor, partial curve, poor fit]
7 | CN(CCO)C1=NS(=O)(=O)c2cc([N+](=O)[O-])ccc21 | active: 4.15 µM
8 | CN(C)c1ccc(C(CNC(=O)c2ccccc2)c2c[nH]c3ccccc23)cc1 (stereo not drawn) | inconclusive [inhibitor, single point]
9 | CCCCCN(C(=O)CCC(=O)OC(C)C(=O)NCc1ccccc1)c1c(N)n(CCCC)c(=O)[nH]c1=O (stereo not drawn) | inconclusive [inhibitor, partial curve]
10 | CCc1nnc(NC(=O)CSc2nnc(-c3c[nH]c4ccccc34)n2CCOC)s1 | inconclusive [inhibitor, partial curve, poor fit]
11 | COCCn1c(N)c(N(Cc2ccccc2)C(=O)Cc2c(Cl)cccc2Cl)c(=O)[nH]c1=O | inactive
12 | CCCOc1ccc(N/C=C/C(=O)c2cc(OC)c(OC)c(OC)c2)cc1 | inactive
13 | Cc1sc2ncnc(N3CCN(Cc4ccccc4)CC3)c2c1-c1ccccc1 | active: 11.7 µM
14 | CCCC(=O)N(Cc1cc(=O)[nH]c2ccccc12)c1ccc(C)cc1C | inconclusive [inhibitor, single point]
15 | CC(=O)c1sc(NC(=O)c2c(F)cccc2F)nc1C | inactive
16 | Cn1ccc2cc(-c3csc(N4CCC(C(N)=O)CC4)n3)ccc21 | inconclusive [inhibitor, single point]
17 | C#CCNC(=O)C1=C[C@@H](c2ccc(Br)cc2)C[C@@H](OCc2ccc(CO)cc2)O1 | inconclusive [inhibitor, partial curve, poor fit]
18 | CC(NC(=O)c1cccc(C(F)(F)F)c1)C(c1ccccc1)N1CCOCC1 (stereo not drawn) | inconclusive [inhibitor, single point]
19 | CC(=NCCN1CCOCC1)c1c(O)n(Cc2ccccc2)c(=O)[nH]c1=O | inconclusive [inhibitor, full curve, poor fit]
20 | CC(C)(C)OC(=O)NCCCC[C@H](NC(=O)c1nc[nH]c1C(=O)NCc1ccccc1)C(=O)OC(C)(C)C | inconclusive [inhibitor, partial curve]
21 | N#Cc1ccccc1NC(=O)COc1ccc2c(c1)OCO2 | inactive
22 | O=C(CCOc1ccccc1)Nc1ccnn1C1CCN(Cc2ccc(O)cc2)CC1 | active: 9.28 µM
23 | CCOC(=O)N1CCN(Cc2nc3cc(NC(=O)CC(C)C)ccc3n2C)CC1 | inconclusive [inhibitor, full curve, poor fit]

Row | SMILES | Potency
24 | N#CC1=C2SCN(Cc3ccco3)CN2C(=O)CC1c1ccc(Cl)cc1 (stereo not drawn) | inconclusive [inhibitor, single point]
25 | O=C(NC(=S)N1CCCC(C(F)(F)F)C1)c1ccc(F)cc1 (stereo not drawn) | inconclusive [inhibitor, single point]
26 | Cc1cccc(C)c1OCc1cc(C(=O)N(Cc2nccn2C)C(C)C)no1 | inconclusive [inhibitor, partial curve]
27 | COC(=O)c1cccc(NC2CC(=O)N(c3ccc(OC)c(OC)c3)C2=O)c1 (stereo not drawn) | inconclusive [inhibitor, partial curve, poor fit]
28 | Cc1nn(CCCC(=O)NCc2ccc(F)cc2)c(=O)c2nccn12 | inactive
29 | COc1cc2c(cc1OC)C(C)N(C(=O)Nc1ccccc1)CC2 (stereo not drawn) | inconclusive [inhibitor, partial curve, poor fit]
30 | Cc1cc(NC(=O)CC2CCCC2)n(-c2nc3ccccc3[nH]2)n1 | inconclusive [inhibitor, single point]
31 | O=S(=O)(c1ccc(-c2csc(-c3cccnc3)n2)cc1)N1CCOCC1 | inconclusive [inhibitor, partial curve, poor fit]
32 | CC(CNS(=O)(=O)c1ccc2c(c1)CC(=O)N2C)c1ccccc1 (stereo not drawn) | active: 9.28 µM
33 | Nc1c(S(=O)(=O)c2cccc(Cl)c2)c2nc3ccccc3nc2n1CCN1CCOCC1 | inconclusive [inhibitor, single point]
34 | CSCc1nnc(NC(=O)c2ccc(S(=O)(=O)N(CC(C)C)CC(C)C)cc2)o1 | inconclusive [inhibitor, single point]
35 | COc1ccc2sc(/C=C/c3ccccc3O)[n+](C)c2c1 | inactive
36 | CCOC(=O)c1nnc(-c2ccc(C)cc2)nc1N1CCSCC1 | inactive
37 | COc1ccc(-n2c(-c3ccco3)nc3c(cnn3-c3ccccc3C)c2=O)cc1 | inconclusive [inhibitor, single point]
38 | CCN1CCN(c2ccc(S(=O)(=O)N3CCOCC3)cc2NC(=O)C(C)Oc2cccc(Cl)c2)CC1 (stereo not drawn) | active: 10.4 µM
39 | CCOc1ccc(NC(=O)C2C3C=CC4(O3)C2C(=O)N(Cc2cccnc2)C4C(=O)NC2CCCCC2)cc1 (stereo not drawn) | inactive
40 | COC(=O)/C(=C/c1c[nH]c2ccccc12)NC(C)=O | inactive
41 | CC1CCC2(CC1)NC(=O)N(CC(=O)N1CCN(S(=O)(=O)c3ccc4c(c3)CCC4)CC1)C2=O (stereo not drawn) | inactive
42 | Cc1cccc(OCc2nnc(SCC(=O)N(c3ccccc3)C3CCS(=O)(=O)C3)o2)c1 (stereo not drawn) | inconclusive [inhibitor, single point]
43 | CN(Cc1ccccc1)C(=O)c1ccc(NC(=O)c2ccccc2)cc1 | inconclusive [inhibitor, partial curve, poor fit]
44 | CC(C)(C)c1ccc(-n2nc(C(N)=O)c(O)cc2=O)cc1 | inconclusive [inhibitor, single point]
45 | Cc1c(C(C)(C)C)s/c(=N/S(=O)(=O)c2ccccc2)n1C | inconclusive [inhibitor, partial curve, poor fit]
46 | COc1ccc(CC(=O)N2CCN(c3cccc(Cl)c3)CC2)cc1OC | inconclusive [inhibitor, single point]

Row | SMILES | Potency
47 | CCOC(=O)C1CCC/C1=N\NC(=O)CN(c1cc(OC)ccc1OC)S(=O)(=O)c1ccccc1 (stereo not drawn) | inconclusive [inhibitor, single point]
48 | Cc1ccc(OCC(=O)N2CCN(CC3CC4C=CC3C4)CC2)cc1 (stereo not drawn) | inconclusive [inhibitor, single point]
49 | Cn1c(=O)oc2cc(S(=O)(=O)N3CCC(C(=O)NCc4ccccc4)CC3)ccc21 | inconclusive [inhibitor, partial curve, poor fit]
50 | Cc1cc(C)n(-c2cc(Cl)ccc2[N+](=O)[O-])n1 | inactive
51 | Cc1ccc(-n2nc3c(=O)n(CCCC(=O)NCc4ccccc4C)nc(C)c3c2C)cc1 | inconclusive [inhibitor, partial curve]
52 | O=C(NCCCN=C1NS(=O)(=O)c2ccccc21)c1ccc(S(=O)(=O)N2CCCCC2)cc1 | inconclusive [inhibitor, partial curve]
53 | Cc1cc(C)nc(N/N=C/c2ccncc2)n1 | inconclusive [inhibitor, single point]
54 | O=C(Nc1nc(-c2cccs2)cs1)c1ccc(Cl)cc1 | inactive
55 | c1ccc(Nc2nc(NCCN3CCOCC3)nc(Nc3ccccc3)n2)cc1 | inconclusive [inhibitor, partial curve]
56 | COc1ncccc1C(=O)NC1CCCc2c1cnn2-c1ccc(C)c(C)c1 (stereo not drawn) | inactive
57 | COC(=O)c1sc(S(=O)(=O)N2CCCCC2)c(C(=O)OC)c1C | inconclusive [inhibitor, single point]
58 | CC1(C)CC(=O)C2=C(C1)O[C@@]1(CCCCN3C(=O)c4ccccc4C3=O)Cc3ccccc3C2O1 | active: 1.69 µM
59 | S=C(NNc1ccnc2cc(Cl)ccc12)Nc1ccc(Cl)cc1Cl | active: 1.85 µM
60 | CNS(=O)(=O)c1cc(NC(C)=O)c(C)cc1C | inactive
61 | Cc1ccccc1CN1CCN(c2ccc(S(=O)(=O)N3CCCC3)cn2)CC1 | inconclusive [inhibitor, single point]
62 | CC(=O)Nc1ccc2c(c1)nc1n2CCN(C2CCCCC2)C1 | inactive
63 | O=c1c2ccccc2c(C=NC2CCN(Cc3ccccc3)CC2)c(O)n1Cc1ccc2c(c1)OCO2 | active: 4.65 µM
64 | Cc1cccc(C(=O)OC(C)C(=O)Nc2ccc(S(=O)(=O)N3CCCC3)cc2)c1O (stereo not drawn) | inconclusive [inhibitor, partial curve, poor fit]
65 | C=CCNC(=O)c1ccc2c(=O)n(Cc3ccccc3OC)c(=S)[nH]c2c1 | active: 3.29 µM
66 | Cc1nn(C)c(C)c1NS(=O)(=O)c1ccc(Cl)cc1 | inactive
67 | O=C1NCCC/C1=N\Nc1ccc(Br)cc1 | inactive
68 | CCC(=Nc1ccc(OC)cc1OC)c1c(O)n(C)c(=O)n(C)c1=O | inconclusive [inhibitor, single point]
